Test results from publication PMC6919601, “Identification of Plasmodium dipeptidyl aminopeptidase allosteric inhibitors by high throughput screening” (PLoS ONE, 2019).
Where “and” joins values, the source holds several entries; their conditions need not be identical. Equal entries are not always repeated. Screen size: about 110,000 compounds; about 230 (0.21%) showed an effect of 50% or more. Some of the results follow.

Target: DPAP1 (Plasmodium falciparum, UniProt Q8IIJ9)
Assay: primary screen, percent inhibition; read by cleavage of a fluorogenic dipeptide substrate; higher = more effect of the substance
Parameters: species or system P. falciparum D10 trophozoite lysates; single well
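Also: 30 min substrate incubation versus DMSO and 10 µM JCP410 controls.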

DPAP1, sequence (Q8IIJ9 whole entry, looked up): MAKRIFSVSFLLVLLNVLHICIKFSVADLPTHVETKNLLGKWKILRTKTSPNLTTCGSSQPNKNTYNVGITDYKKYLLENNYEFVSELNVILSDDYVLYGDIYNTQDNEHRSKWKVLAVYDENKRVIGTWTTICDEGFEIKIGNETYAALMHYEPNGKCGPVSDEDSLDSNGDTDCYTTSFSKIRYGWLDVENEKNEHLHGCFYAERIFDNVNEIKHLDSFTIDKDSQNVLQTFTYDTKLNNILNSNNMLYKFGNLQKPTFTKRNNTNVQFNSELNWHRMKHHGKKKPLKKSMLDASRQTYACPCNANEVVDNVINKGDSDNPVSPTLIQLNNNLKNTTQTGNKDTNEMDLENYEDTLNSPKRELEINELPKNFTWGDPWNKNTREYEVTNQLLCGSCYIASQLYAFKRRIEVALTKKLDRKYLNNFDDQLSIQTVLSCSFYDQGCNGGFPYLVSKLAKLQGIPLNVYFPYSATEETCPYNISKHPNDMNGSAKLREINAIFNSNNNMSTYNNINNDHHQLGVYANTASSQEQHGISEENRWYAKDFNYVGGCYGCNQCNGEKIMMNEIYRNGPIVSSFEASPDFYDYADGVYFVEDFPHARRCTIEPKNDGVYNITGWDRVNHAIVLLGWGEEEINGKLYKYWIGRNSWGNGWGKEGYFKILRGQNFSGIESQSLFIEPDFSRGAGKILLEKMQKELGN

In order of falling “% Inhibition @ 10 uM” value:
1. COc1ccc(C(=O)C2=C(O)C(=O)N(CCc3ccccc3)C2c2cccc(F)c2)cc1 (stereo not drawn)  9.19%
2. O=C(O)c1nn(-c2ccccc2)nc1-c1nn(-c2ccccc2)nc1C(=O)O  7.56%
3. CCc1c(C)sc(NC(=O)c2cnccn2)c1C#N  7.1%
4. CC(C)c1ccc(NC(=O)CN(C)S(=O)(=O)c2cc(Cl)ccc2Cl)cc1  5.66%
5. O=c1oc2cc(O)ccc2cc1-c1csc(-c2ccc(Br)cc2)n1  4.81%
6. O=C1CC(c2ccc(Cl)c(Cl)c2)C2=C(CC(c3ccccc3Cl)CC2=O)N1 (stereo not drawn)  4.78%
7. CCCN(CCC)S(=O)(=O)c1ccc(C(=O)NCCOc2ccccc2Cl)cc1  4.42%
8. CCOc1ccc(/C=C2/N=C(c3c(-c4ccccc4)noc3C)OC2=O)cc1  4.38%
9. Cc1c(Cc2ccccc2)sc(NC(=O)c2ccccc2)c1C(N)=O  3.84%
10. CCOC(=O)c1cn2nc(-c3ccc(OC)c(OC)c3)cc2nc1C  3.62%
11. Cn1nnc2c(NCc3nc4ccccc4n3C)nc(Cc3ccc(Cl)cc3Cl)nc21  3.51%
12. COc1ccc(/C=C/C(=O)NCc2ccc(Cl)cc2Cl)cc1  3.44%
13. CS(=O)(=O)c1nc(-c2ccc(F)cc2)cc(C(F)(F)F)n1  3.34%
14. CN1CCC(N(C)C/C=C/c2ccccc2)CC1  2.91%
15. CCOCCCNC(=O)C1=C(C)C(=O)OC12CCN(CC)CC2  2.87%
16. COc1cccc(CSc2nc3cccnc3[nH]2)c1  2.72%
17. Cc1ccc(C)n1-c1nnc(N2CCCC(C(=O)NCCCOC(C)C)C2)s1 (stereo not drawn)  2.65%
18. Cc1nn(-c2cc(Oc3ccccc3)ncn2)c(N)c1C(N)=O  2.64%
19. CC1CCCN(S(=O)(=O)c2ccc(Cl)c([N+](=O)[O-])c2)C1 (stereo not drawn)  2.46%
20. O=c1oc2ccccc2cc1-c1cnc(-c2ccccc2)o1  2.4%
21. CCc1ccc2nc(NC3=NCN(C4CCCCC4)CN3)nc(C)c2c1  2.1%
22. O=C(CSc1ncnc2sc(-c3ccccc3)cc12)NCCc1ccccc1  1.84%
23. CCC(C)N(CCNC(=O)Cn1ncc2c3ccccc3nc-2c1O)Cc1ccco1 (stereo not drawn)  1.43%
24. C=CCSc1nc2sc3c(c2c(=O)n1-c1ccccc1)CCN(C)C3  1.4%
25. COc1ccc(CN2CCN(C)CC2)cc1OC  1.28%
26. CCN1CCC(N2CCN(c3ccc(F)cc3)CC2)CC1  1.26%
27. Cc1ccc(C(=O)N(Cc2ccccc2)Cc2ccccc2)o1  1.07%
28. COc1ccc(-c2cc(OC(=O)/C=C/c3ccccc3)c3c(C)oc(C)c3c(=O)c2)cc1  0.778%
29. CC1=C(C#N)C(c2ccccc2OC(C)C)C2=C(O)CC(c3ccccc3)CC2=N1 (stereo not drawn)  0.726%
30. CC(C)COc1ccc2c(c1)c1c3c([n+](C)ccn32)CCC1  0.565%
31. c1ccc(CC2CCN(Cc3ccncc3)CC2)cc1  0.472%
32. COc1ccccc1S(=O)Cc1ccc(C(=O)NCc2ccccc2Cl)o1 (stereo not drawn)  0.458%
33. CC1=C(c2ccc(C(C)C)cc2)S(=O)(=O)N=C1Nc1cccnc1  0.413%
34. COc1cccc(-c2cc(C(=O)Nc3cc(C)on3)c3ccccc3n2)c1  0.331%
35. COc1ccc(Br)cc1C1C(C#N)=C(N)Oc2cc(C)oc(=O)c21 (stereo not drawn)  0.317%
36. COc1ccccc1CNC(=O)Cn1cnc2c(nc3n2CCCCC3)c1=O  0.244%
37. O=C(O)c1cccc(/C=c2\sc3nc4ccccc4n3c2=O)c1  0.193%
38. COc1ccc(NC(=O)CN(c2ccc(C)c(Cl)c2)S(C)(=O)=O)c(OC)c1  0.189%
39. O=C(c1ccc(F)cc1)N1CCN(c2cccc(Cl)c2)CC1  0.177%
40. Cc1ccc(CCNC(=O)Cn2cc3c(n2)CCCC3)cc1  0.137%
41. CC(C)(C)NC(=O)Cn1c(=O)n(CC(=O)NC(C)(C)C)c2ccccc21  0.13%
42. Cc1ccc(CN(C)CCc2ccccc2)o1  0.0792%
43. CCOc1ccc(-c2ncnn2-c2cccc(C(F)(F)F)c2)cc1  -0.0953%
44. CCCCC/N=C/C1=C(O)CC(c2ccccc2)CC1=O (stereo not drawn)  -0.142%
45. CCc1ccc(CNCc2c(C(=O)O)c(C)n(Cc3cccc(Cl)c3)c2C)cc1  -0.23%
46. Cc1ccc(Sc2cc(C(=O)NCCN(C)C)c3ccccc3n2)cc1  -0.406%
47. CC(C)NC(=O)c1ccc(CS(=O)c2ccccc2Cl)o1 (stereo not drawn)  -0.434%
48. CCC(C)NC(=O)C1CCN(c2nnc(C)c3c(C)n(-c4ccccc4)nc23)CC1 (stereo not drawn)  -0.486%
49. CCOc1ccc(N(CC(=O)N2CCCCC2)S(=O)(=O)c2ccc(C)cc2)cc1  -0.496%
50. CCc1c(C)nc2nncn2c1NCc1ccc(F)cc1  -0.808%
51. O=C(CCCCn1c(=O)[nH]c2ccsc2c1=O)NCCC1=CCCCC1  -0.972%
52. Cc1cc(C(F)(F)F)nc2sc(C(=O)Nc3ccc(F)cc3)c(N)c12  -1.02%
53. O=c1c(Cl)c(N2CCOCC2)cnn1-c1nc2ccccc2o1  -1.07%
54. O=C(NCc1nc2ccccc2n1CCCCOc1ccccc1)c1ccccc1  -1.15%
55. CCC[C@@H](NC(=O)C(CC(C)C)c1cccc(-c2ccc(N3CCNCC3)cc2)c1)C(=O)c1nnc(-c2ccc(OC)cc2)o1 (stereo partly drawn)  -1.41%
56. Cc1c(C(=O)NC(C)c2ccccc2)sc2ncnc(N3CCN(c4ccccn4)CC3)c12 (stereo not drawn)  -1.46%
57. O=C(CCCC(=O)c1ccccc1)NC(c1ccccc1)c1ccccc1  -1.46%
58. CS(=O)(=O)N(CC(=O)N1CCCCC1)c1ccccc1F  -1.59%
59. Cc1ccc(CNC(=O)c2nc(-c3ccncc3)no2)cc1  -1.67%
60. Nc1nc2nc(-c3ccc(OCc4ccccc4)cc3)cc(C(F)(F)F)n2n1  -1.69%
61. COc1ccc2[nH]c(SCc3cnc(C)nc3N)nc2c1  -1.72%
62. O=C(CSc1ncnc2c1sc1nc(N3CCOCC3)c3c(c12)CCCC3)N1CCCCC1  -1.82%
63. N#CCNC(=O)[C@H](CC1CCCCC1)NC(=O)c1ccco1  -1.83%
64. C=CCCCC(=O)Nc1cc(OC)nc(OC)n1  -2.02%
65. Cc1cccc(OCCn2c(CCCO)nc3ccccc32)c1  -2.05%
66. C=CCNC(=O)C(=O)NCc1ccccn1  -2.18%
67. Oc1c(/C=N/CCN2CCOCC2)c(C(F)(F)F)nn1-c1nc2ccccc2s1  -2.26%
68. CC1(C)Cc2c(sc3ncn4nc(-c5ccccc5)nc4c23)C(C)(C)N1  -2.26%
69. Cn1c(=O)c2c(nc(CN3CCc4ccccc4C3)n2Cc2c(F)cccc2Cl)n(C)c1=O  -2.29%
70. O=c1ccc(-c2ccccc2)nn1Cc1cc(=O)n2ccccc2n1  -2.71%
71. N#CC1=C(N)Nc2oc(-c3ccccc3)nc2C1c1ccccc1 (stereo not drawn)  -2.8%
72. CCCOc1cccc(C2c3c(oc4ccccc4c3=O)C(=O)N2c2nc(C)c(C(=O)OC)s2)c1 (stereo not drawn)  -2.92%
73. O=C(CC(NCCN1CCOCC1)C(=O)O)Nc1ccc(Cl)cc1 (stereo not drawn)  -2.98%
74. Cc1nnc2sc(NC(=O)C3CCCCC3)nn12  -3.1%
75. Cc1ccc(C)c(Cn2c(C(=O)O)c(CNCC(C)c3ccccc3)c3ccccc32)c1 (stereo not drawn)  -3.21%
76. COc1ccc(C(=O)NC2(C(F)(F)F)NC(=O)N(Cc3ccco3)C2=O)cc1OC (stereo not drawn)  -3.33%
77. CCOC(=O)N1CCC(NC(c2ccccc2)c2ccc(Cl)cc2)CC1 (stereo not drawn)  -3.6%
78. COc1ccc(-c2nc3ccccc3n2C(=O)c2ccccc2C(=O)O)cc1OC  -3.64%
79. O=C(Cn1cc(C(=O)c2ccccc2)c2ccccc21)NCC1CCCO1 (stereo not drawn)  -3.64%
80. CCN1CCN(C(=O)CCCN2C(=O)c3ccccc3Sc3ncccc32)CC1  -3.86%
81. Cc1ccc(CCNS(=O)(=O)c2ccc(-n3cccn3)cc2)cc1  -4.27%
82. CN1CCc2nc(SCc3cccc(Br)c3)c(C#N)cc2C1  -4.28%
83. CCCCc1ccc(-c2nc(-c3ccc(Br)cc3)no2)cc1  -4.31%
84. COC(=O)C1=CN(CC23CC4CC(CC(C4)C2)C3)C=C(C(=O)OC)C1c1ccc(O)c(OC)c1  -4.35%
85. CCN1CCN(Cc2ccco2)CC1  -4.35%
86. Cc1coc2cc3oc(=O)c(CCC(=O)NCCc4ccccc4)c(C)c3cc12  -4.39%
87. C=CCn1c(N)cc(=O)nc1SCC(=O)Nc1ccc(Cl)cn1  -4.68%
88. COc1cc(C2NC(=O)NC(C)=C2C(=O)OCCOc2ccccc2)ccc1O (stereo not drawn)  -4.77%
89. COc1ccc(Cl)cc1N(CC(=O)Nc1ccc(Br)cc1)S(C)(=O)=O  -5.13%
90. c1ccc(CN2CCC(NC3CCC(c4ccccc4)CC3)CC2)cc1 (stereo not drawn)  -5.44%
91. Cc1onc(-c2c(Cl)cccc2Cl)c1C(=O)NC(C)C  -7.09%
92. COc1cc(C2C(C#N)=C(N)N(c3c(F)cccc3F)C3=C2C(=O)CCC3)ccc1O (stereo not drawn)  -7.3%
93. CC1=Nc2nc3ccccc3n2C(c2ccco2)/C1=C(/O)OCc1ccccc1 (stereo not drawn)  -8.02%
94. CCOc1ccccc1N(CC(=O)NC(C)(C)C)S(=O)(=O)c1ccc(Cl)cc1  -8.2%
95. Cc1nnc2sc(COc3ccccc3)nn12  -8.53%
96. O=C1NC(=O)C(=Cc2coc3ccccc3c2=O)C(=O)N1  -9.6%
97. COc1ccc(NCN2C(=O)C3CCC(C)CC3C2=O)cc1 (stereo not drawn)  -11.7%
98. CCOC(=O)c1cnc2c(C)cccc2c1O  -12.1%

For `CSc1nc(-c2ccccc2)nc(NC(C)=O)c1C(C)=O`, the “% Inhibition @ 10 uM” value was 3.62% and -2.29%.
